Activity calls are given as the source filed them. The calls are words filed in the database; no cut-off is given here.
How the values were obtained:
[1] = system: K562; assay: Induction of apoptosis in human K562 cells assessed as late apoptotic cells at 0.5 uM after 24 hrs by Annexin-V/propidium iodide staining-based flow cytometric analysis (reference value: 5.87%); format: functional
[2] = biological target: Fibroblast growth factor receptor 2 (Homo sapiens) (UniProt P21802); assay: Inhibition of recombinant human FGFR2 at 200 nM using Ulight-CAGAGAIETDKEYYTVKD as substrate measured after 15 mins by LANCE method relative to control
Summary of the method: (§1)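 Single-concentration screen within an 85-kinase panel run by a contract lab, with each compound tested at 20 nM and 200 nM. Human recombinant enzymes were used. Activity was quantified as phosphorylation of a peptide substrate read by LANCE time-resolved detection, and inhibition was expressed relative to control, using the same format as the JAK assay.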

[3] = biological target: Rho-associated protein kinase 2 (Homo sapiens) (UniProt O75116); assay: Inhibition of recombinant human ROCK2 at 200 nM using Ulight-RRRSLLE peptide as substrate measured after 15 mins by LANCE assay relative to control
[4] = AUC (0 to t) in CD1(ICR) mouse at 1 mg/kg, ip by LC-MS/MS analysis; format: ADME, organism-based; conditions: in vivo
Summary of the method: (§2)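 Male ICR (CD-1) mice dosed IP or IV, vehicle 10% DMSO, 40% PEG400, 50% water. Blood taken from the jugular vein at set time points and held on ice. Plasma separated by centrifugation, stored at -80 °C, and analysed by LC-MS/MS.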

[5] = biological target: Tyrosine-protein kinase FRK (Homo sapiens) (UniProt P42685); assay: Inhibition of recombinant human FRK at 20 nM using Ulight-Poly GAT[EAY(1:1:1)] as substrate measured after 15 mins by LANCE method relative to control; summary of the method: as §1
[6] = biological target: Serine/threonine-protein kinase ULK1 (Homo sapiens) (UniProt O75385); assay: Inhibition of recombinant human ULK1 at 200 nM using Ulight-FLGFTYVAP as substrate measured after 60 mins by LANCE method relative to control
[7] = biological target: Serine/threonine-protein kinase Nek2 (Homo sapiens) (UniProt P51955); assay: Inhibition of recombinant human NEK2 at 200 nM using Ulight-FLGFTYVAP as substrate measured after 60 mins by LANCE method relative to control
Summary of the method: (§3)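 Part of an 85-kinase selectivity panel run by a contract lab, with the test compound at 20 nM and at 200 nM. Each human recombinant kinase's phosphorylation of its peptide substrate was measured following the JAK assay method. Activity is given as percent inhibition.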

[8] = biological target: Mast/stem cell growth factor receptor Kit (Homo sapiens) (UniProt P10721); assay: Inhibition of recombinant human c-KIT at 200 nM using Ulight-TK peptide as substrate measured after 30 mins by LANCE assay relative to control
[9] = biological target: Interleukin-1 receptor-associated kinase 1 (Homo sapiens) (UniProt P51617); assay: Inhibition of recombinant human IRAK1 at 200 nM using Ulight-FLGFTYVAP as substrate measured after 60 mins by LANCE method relative to control; summary of the method: as §3
[10] = Bioavailability in CD1(ICR) mouse at 1 mg/kg, ip by LC-MS/MS analysis; format: ADME, organism-based; conditions: in vivo; summary of the method: as §2
[11] = biological target: Rho-associated protein kinase 2 (Homo sapiens) (UniProt O75116); assay: Inhibition of recombinant human ROCK2 at 20 nM using Ulight-RRRSLLE peptide as substrate measured after 15 mins by LANCE assay relative to control
[12] = biological target: Discoidin domain-containing receptor 2 (Homo sapiens) (UniProt Q16832); assay: Inhibition of recombinant human DDR2 at 200 nM using Ulight-Poly GAT[EAY(1:1:1)] as substrate measured after 10 mins by LANCE method relative to control; summary of the method: as §1
[13] = biological target: Serine/threonine-protein kinase Chk1 (Homo sapiens) (UniProt O14757); assay: Inhibition of recombinant human CHK1 at 200 nM using CREBtide as substrate measured after 30 mins by LANCE assay relative to control; summary of the method: as §1
[14] = Clearance in Sprague-Dawley rat at 2 mg/kg, iv by LC-MS/MS analysis; format: ADME, organism-based; conditions: in vivo
Summary of the method: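 Male Sprague-Dawley rats dosed IV at 2 mg/kg (6 rats) in 10% DMSO, 40% PEG400, 50% water. Jugular-vein blood was collected at set time points and kept on ice. Plasma separated by centrifugation, stored at -80 °C, and analysed by LC-MS/MS.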

[15] = biological target: LIM domain kinase 1 (Homo sapiens) (UniProt P53667); assay: Inhibition of recombinant human LIMK1 at 200 nM using Ulight-RRRSLLE as substrate measured after 180 mins by LANCE method relative to control; summary of the method: as §3
[16] = biological target: Glycogen synthase kinase-3 beta (Homo sapiens) (UniProt P49841); assay: Inhibition of recombinant human GSK3beta at 20 nM using Ulight-CFFKNIVTPRTPPPSQGK-amide as substrate measured after 90 mins by LANCE method relative to control; summary of the method: as §3
[17] = biological target: Fibroblast growth factor receptor 3 (Homo sapiens) (UniProt P22607); assay: Inhibition of recombinant human FGFR3 at 200 nM using Ulight-CAGAGAIETDKEYYTVKD as substrate measured after 90 mins by LANCE method relative to control; summary of the method: as §1
[18] = biological target: Histone deacetylase (Homo sapiens) (UniProt Q13547+O15379+Q9UBN7+Q92769+Q9UQL6+Q8WUI4+Q9BY41+Q96DB2+P56524+Q9UKV0+Q969S8); assay: Inhibition of HDAC in human MDA-MB-231 cells assessed as increase in acetyl histone H3 level at 5 to 10 uM after 12 hrs by Western blot analysis; format: cell-based
Summary of the method: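 MDA-MB-231 cells treated with compound or DMSO for 12 h, then lysed in SDS buffer and cleared by centrifugation. Lysate resolved by SDS-PAGE and transferred to nitrocellulose. Immunoblotted for p-STAT3 (Tyr705), total STAT3, acetyl-α-tubulin and acetyl-histone H3, with GAPDH as loading control. Detection by enhanced chemiluminescence.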

[19] = biological target: MAP kinase-interacting serine/threonine-protein kinase 1 (Homo sapiens) (UniProt Q9BUB5); assay: Inhibition of recombinant human MNK1 at 200 nM using CREBtide as substrate measured after 60 mins by LANCE assay relative to control; summary of the method: as §3

Sequence of UniProt O75116 (O75116 whole entry, looked up, the tested form may be a part): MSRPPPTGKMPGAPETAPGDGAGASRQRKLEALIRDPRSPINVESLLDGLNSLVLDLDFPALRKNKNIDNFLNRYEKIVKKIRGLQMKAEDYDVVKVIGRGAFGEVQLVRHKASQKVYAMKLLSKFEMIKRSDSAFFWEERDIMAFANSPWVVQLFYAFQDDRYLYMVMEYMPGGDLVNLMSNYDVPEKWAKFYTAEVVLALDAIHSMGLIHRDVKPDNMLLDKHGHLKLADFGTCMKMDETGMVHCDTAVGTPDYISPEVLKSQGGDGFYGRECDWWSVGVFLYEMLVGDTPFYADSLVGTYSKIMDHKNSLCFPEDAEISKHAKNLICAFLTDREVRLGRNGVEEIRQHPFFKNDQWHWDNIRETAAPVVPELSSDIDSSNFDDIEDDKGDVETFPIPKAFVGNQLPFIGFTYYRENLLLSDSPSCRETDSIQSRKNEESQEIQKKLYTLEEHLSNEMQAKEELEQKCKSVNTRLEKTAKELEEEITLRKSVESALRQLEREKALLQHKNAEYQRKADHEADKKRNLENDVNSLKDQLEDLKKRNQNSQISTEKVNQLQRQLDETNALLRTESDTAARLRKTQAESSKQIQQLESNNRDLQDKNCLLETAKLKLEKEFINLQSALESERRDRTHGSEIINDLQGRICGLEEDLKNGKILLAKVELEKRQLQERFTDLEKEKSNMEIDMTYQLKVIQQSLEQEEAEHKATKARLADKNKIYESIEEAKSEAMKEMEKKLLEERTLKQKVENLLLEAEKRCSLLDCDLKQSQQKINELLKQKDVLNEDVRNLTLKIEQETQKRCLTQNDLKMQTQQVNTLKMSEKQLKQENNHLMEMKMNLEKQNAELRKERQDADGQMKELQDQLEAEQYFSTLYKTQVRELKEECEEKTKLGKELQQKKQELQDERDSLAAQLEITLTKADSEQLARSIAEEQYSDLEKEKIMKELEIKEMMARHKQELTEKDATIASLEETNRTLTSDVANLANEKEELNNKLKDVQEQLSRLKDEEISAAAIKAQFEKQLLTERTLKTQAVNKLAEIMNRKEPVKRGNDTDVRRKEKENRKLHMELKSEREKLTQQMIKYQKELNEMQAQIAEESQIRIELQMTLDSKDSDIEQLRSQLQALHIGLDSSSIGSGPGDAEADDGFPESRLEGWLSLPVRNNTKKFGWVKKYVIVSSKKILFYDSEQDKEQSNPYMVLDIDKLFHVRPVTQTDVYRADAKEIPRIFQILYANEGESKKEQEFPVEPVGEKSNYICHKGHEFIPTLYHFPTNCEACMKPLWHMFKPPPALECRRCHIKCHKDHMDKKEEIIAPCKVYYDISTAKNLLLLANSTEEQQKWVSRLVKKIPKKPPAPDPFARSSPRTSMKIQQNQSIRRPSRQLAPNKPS
Sequence of UniProt O14757 (O14757 whole entry): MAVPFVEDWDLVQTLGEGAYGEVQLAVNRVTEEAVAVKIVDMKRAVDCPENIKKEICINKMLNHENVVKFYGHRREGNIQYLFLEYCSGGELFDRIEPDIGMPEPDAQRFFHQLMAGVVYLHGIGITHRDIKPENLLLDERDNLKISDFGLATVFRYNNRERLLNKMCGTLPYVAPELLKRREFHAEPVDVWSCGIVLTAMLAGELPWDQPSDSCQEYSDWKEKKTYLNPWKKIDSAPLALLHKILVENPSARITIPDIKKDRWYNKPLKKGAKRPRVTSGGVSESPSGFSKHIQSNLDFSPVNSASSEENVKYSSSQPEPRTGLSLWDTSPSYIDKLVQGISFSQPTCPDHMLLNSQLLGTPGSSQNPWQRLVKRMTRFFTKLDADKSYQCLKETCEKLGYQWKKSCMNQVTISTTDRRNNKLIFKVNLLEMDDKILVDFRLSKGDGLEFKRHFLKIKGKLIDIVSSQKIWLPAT
Sequence of UniProt P42685 (P42685 whole entry): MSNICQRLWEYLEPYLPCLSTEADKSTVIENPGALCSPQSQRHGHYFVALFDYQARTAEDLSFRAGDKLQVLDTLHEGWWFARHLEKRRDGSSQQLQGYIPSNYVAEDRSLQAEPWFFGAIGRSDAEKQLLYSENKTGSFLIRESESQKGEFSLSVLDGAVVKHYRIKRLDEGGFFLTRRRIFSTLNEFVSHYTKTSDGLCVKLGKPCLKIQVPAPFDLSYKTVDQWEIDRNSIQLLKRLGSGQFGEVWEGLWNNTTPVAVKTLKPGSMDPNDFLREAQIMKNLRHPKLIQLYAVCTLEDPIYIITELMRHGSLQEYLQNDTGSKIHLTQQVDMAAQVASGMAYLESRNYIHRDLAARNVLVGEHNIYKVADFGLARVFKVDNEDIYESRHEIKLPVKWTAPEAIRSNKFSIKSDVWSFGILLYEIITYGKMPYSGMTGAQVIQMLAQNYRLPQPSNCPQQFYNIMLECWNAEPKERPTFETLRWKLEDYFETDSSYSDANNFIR
Sequence of UniProt P21802 (P21802 whole entry, looked up): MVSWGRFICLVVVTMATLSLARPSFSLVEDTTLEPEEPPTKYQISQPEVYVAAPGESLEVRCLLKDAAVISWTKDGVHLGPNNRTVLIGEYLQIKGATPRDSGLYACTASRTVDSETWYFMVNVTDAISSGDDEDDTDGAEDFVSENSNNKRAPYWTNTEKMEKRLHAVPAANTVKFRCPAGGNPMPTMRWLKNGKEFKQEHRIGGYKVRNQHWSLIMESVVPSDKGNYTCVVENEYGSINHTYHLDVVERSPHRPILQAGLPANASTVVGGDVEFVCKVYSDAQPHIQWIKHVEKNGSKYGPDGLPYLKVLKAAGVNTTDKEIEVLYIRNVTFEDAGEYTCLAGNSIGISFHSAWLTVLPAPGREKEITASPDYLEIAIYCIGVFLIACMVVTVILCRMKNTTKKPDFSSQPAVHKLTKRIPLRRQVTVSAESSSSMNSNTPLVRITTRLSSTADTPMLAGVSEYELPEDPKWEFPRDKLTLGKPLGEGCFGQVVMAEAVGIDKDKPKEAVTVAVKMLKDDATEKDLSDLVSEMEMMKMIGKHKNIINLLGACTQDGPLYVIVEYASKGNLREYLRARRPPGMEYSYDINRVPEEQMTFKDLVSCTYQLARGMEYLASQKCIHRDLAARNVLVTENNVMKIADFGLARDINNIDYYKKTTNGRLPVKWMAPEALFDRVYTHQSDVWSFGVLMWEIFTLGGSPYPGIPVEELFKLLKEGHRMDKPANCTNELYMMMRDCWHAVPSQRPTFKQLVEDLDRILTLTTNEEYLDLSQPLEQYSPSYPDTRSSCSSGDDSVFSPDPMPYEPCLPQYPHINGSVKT
Sequence of UniProt P49841 (P49841 whole entry, looked up): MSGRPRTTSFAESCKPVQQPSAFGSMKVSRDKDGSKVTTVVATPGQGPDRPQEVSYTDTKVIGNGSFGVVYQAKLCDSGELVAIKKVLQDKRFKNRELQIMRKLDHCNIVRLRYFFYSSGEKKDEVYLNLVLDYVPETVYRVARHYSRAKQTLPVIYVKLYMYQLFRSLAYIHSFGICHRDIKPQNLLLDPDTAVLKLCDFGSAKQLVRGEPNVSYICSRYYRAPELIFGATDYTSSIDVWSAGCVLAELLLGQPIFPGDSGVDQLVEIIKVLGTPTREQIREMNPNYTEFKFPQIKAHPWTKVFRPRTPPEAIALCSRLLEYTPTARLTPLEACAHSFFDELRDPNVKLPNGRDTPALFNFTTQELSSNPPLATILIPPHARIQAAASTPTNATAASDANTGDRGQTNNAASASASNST
Sequence of UniProt O75385 (O75385 whole entry): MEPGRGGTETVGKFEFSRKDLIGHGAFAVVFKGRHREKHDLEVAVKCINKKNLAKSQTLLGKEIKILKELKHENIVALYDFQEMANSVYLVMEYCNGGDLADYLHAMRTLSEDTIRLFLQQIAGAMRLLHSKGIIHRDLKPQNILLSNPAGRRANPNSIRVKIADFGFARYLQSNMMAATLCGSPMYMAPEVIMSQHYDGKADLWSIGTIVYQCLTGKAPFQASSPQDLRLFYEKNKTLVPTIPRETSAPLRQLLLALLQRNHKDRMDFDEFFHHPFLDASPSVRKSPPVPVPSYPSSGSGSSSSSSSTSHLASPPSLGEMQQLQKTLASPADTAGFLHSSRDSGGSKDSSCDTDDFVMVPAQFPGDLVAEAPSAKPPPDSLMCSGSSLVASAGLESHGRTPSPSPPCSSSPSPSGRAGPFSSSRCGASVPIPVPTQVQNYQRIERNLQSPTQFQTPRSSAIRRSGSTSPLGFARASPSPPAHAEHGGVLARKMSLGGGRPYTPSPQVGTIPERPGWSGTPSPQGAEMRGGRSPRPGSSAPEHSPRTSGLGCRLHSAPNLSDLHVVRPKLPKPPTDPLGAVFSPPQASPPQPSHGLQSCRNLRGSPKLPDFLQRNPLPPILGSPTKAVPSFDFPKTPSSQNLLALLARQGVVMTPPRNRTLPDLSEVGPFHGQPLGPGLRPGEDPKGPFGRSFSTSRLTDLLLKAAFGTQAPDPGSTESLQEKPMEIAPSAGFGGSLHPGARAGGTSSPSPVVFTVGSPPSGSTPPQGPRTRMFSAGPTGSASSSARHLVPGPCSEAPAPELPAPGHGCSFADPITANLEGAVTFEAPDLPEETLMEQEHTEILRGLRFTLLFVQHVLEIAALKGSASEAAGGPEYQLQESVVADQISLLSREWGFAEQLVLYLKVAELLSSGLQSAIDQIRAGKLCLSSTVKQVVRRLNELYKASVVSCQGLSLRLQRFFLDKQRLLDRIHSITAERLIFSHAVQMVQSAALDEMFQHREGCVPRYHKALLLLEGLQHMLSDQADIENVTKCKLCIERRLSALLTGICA

Q: With O=C(CCCCCn1cc(Nc2ncc(Cl)c(Nc3ccc(Cl)cc3)n2)cn1)NO as the compound, how does the Activity [1] read?
A: 33.5%

Q: What about the inhibition [2] of the same compound?
A: 79%

Q: And the inhibition [3]?
A: -5%

Q: And the AUC(0-t) [4]?
A: 33 ng·h/mL

Q: And the inhibition [5]?
A: 8%

Q: What about the inhibition [6] of the same compound?
A: 13%

Q: What about the inhibition [7] of the same compound?
A: 15%

Q: What about the inhibition [8] of the same compound?
A: 35%

Q: And the inhibition [9]?
A: 41%

Q: And the bioavailability [10]?
A: 116%

Q: And the inhibition [11]?
A: -3%

Q: And the inhibition [12]?
A: 11%

Q: What about the inhibition [13] of the same compound?
A: 2%

Q: What about the clearance [14] of the same compound?
A: 161 mL/min/kg

Q: What about the inhibition [15] of the same compound?
A: 0%

Q: What about the inhibition [16] of the same compound?
A: 8%

Q: And the inhibition [17]?
A: 65%

Q: What about the inhibition [18] of the same compound?
A: Active

Q: What about the inhibition [19] of the same compound?
A: 0%

Source: ChEMBL document CHEMBL4346670, “Discovery of Novel Janus Kinase (JAK) and Histone Deacetylase (HDAC) Dual Inhibitors for the Treatment of Hematological Malignancies” (J Med Chem, 2019)
